From paper PMC4336329 (PLoS ONE, 2015)
Among all 310,000 compounds or so, about 2,200 (0.71%) showed an effect of 50% or more. The effect is printed as a negative number. The list shows a part of the results.

molecular target: human ether-à-go-go-related gene (hERG) potassium channel (human, UniProt Q12809); experiment: primary screen, population patch clamp on CHO cells stably expressing hERG
Sequence (Q12809 whole entry, looked up): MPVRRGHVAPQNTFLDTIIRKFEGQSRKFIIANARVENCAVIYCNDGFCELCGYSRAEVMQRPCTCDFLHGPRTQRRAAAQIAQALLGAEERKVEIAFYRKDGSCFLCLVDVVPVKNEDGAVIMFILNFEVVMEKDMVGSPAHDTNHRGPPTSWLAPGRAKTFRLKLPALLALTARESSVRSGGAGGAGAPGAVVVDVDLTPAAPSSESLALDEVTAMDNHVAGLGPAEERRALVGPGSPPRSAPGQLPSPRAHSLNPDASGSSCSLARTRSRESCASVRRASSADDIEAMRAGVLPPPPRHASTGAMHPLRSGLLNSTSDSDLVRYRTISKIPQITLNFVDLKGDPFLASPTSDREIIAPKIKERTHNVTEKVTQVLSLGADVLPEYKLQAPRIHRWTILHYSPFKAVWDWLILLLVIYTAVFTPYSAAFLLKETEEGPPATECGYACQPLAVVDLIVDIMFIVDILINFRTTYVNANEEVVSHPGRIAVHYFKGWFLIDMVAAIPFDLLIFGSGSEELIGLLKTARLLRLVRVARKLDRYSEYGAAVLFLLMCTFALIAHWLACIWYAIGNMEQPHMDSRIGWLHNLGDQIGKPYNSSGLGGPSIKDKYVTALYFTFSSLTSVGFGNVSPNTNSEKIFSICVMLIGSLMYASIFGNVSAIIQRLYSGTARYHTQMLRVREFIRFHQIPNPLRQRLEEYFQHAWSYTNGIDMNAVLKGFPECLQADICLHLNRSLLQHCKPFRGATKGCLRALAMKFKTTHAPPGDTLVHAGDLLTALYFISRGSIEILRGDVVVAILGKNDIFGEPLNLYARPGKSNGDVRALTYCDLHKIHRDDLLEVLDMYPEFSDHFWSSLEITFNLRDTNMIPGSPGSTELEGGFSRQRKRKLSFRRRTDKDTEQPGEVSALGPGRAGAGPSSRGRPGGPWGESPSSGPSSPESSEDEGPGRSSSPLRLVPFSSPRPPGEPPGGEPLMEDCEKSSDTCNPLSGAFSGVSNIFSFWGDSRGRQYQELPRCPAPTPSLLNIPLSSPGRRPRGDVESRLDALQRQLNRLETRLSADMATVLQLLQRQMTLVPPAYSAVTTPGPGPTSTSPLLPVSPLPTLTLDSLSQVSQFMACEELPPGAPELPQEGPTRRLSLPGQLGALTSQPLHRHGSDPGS

Row | Structure (SMILES) | hERG current change (%, negative = inhibition) at 1uM [%]
1 | Cc1ccc(S(=O)(=O)N/N=c2\oc3ccccc3cc2C(=O)Nc2cccc(C)c2)cc1 | -36.5
2 | Cc1ccc(OCC(=O)Nc2ccc(NC(=O)c3cccs3)cc2)c(C)c1 | 13.9
3 | Cc1ccccc1NC(=O)/C(C#N)=C/c1ccc[nH]1 | 17.6
4 | CC1=NNC(=O)C1CCC(=O)N/N=C\c1cccc(Cl)c1 (stereo not drawn) | 15.8
5 | CN(Cc1ccccc1)C(=O)COc1ccc(Br)cc1Cl | -3.2
6 | CS(=O)(=O)c1ccc2nc(NC3(C(F)(F)F)N=C4SCCN4C3=O)sc2c1 (stereo not drawn) | 5.94
7 | CCCC(C)NC(=O)c1sc2nc3n(c(=O)c2c1C)CCC3 (stereo not drawn) | 3.01
8 | O=C(Nc1ccc2nc(-c3ccc(Br)o3)[nH]c2c1)c1cccs1 | -3.23
9 | CS(=O)(=O)Nc1ccc(S(=O)(=O)NC2CCCCC2)cc1 | 7.13
10 | O=C(NCC(=O)N(c1ccc2c(c1)OCCO2)C(C(=O)NC1CCCC1)c1ccco1)c1ccco1 (stereo not drawn) | 4.82
11 | Oc1[nH]c2ccc(Br)cc2c1N=NC(=S)Nc1ccc(F)cc1 | 14.1
12 | CC1(c2ccc(OC(F)F)cc2)NC(=O)N(CC(=O)NC2CCCC2)C1=O (stereo not drawn) | -4.99
13 | O=C(N1CCOCC1)N1CCN(S(=O)(=O)c2cccc([N+](=O)[O-])c2)CC1 | 11.2
14 | Cc1ccc(NC(=O)CSCC(=O)Nc2ccccc2C(=O)N2CCCCC2)cc1 | 13.5
15 | NC(=S)Nc1nc2ccccc2s1 | 17.3
16 | CSc1nc(N)c2c3c(sc2n1)CN(C)CC3 | -2.24
17 | COc1ccc(N2CCN(Cc3nc4cc(Cl)ccc4c(=O)[nH]3)CC2)cc1 | 9.03
18 | O=C(Cc1ccccc1)NN1C(=O)C2C3C=CC(C3)[C@@H]2C1=O (stereo partly drawn) | 4.09
19 | C=CCNCCCCOc1ccc(OCc2ccccc2)cc1.O=C(O)C(=O)O | -8.04
20 | S=C(NCC1CCCO1)N1CCN(c2ccc(Cl)c(Cl)c2)CC1 (stereo not drawn) | 12.4
21 | O=C1C2CCCN2C(c2ccccc2)N1c1nccs1 (stereo not drawn) | 17.3
22 | Cc1ccc(C2c3[nH]c4ccccc4c3C[C@H]3C(=O)N(c4ccccc4C(=O)N4CCC(C(=O)O)CC4)C(=O)N23)cc1 (stereo partly drawn) | 10.1
23 | O=C(CCNC(=O)c1ccc(Br)cc1)Nc1ccccc1N1CCOCC1 | -3.73

Row | Structure (SMILES) | hERG current change (%, negative = inhibition) at 1uM [%]
24 | Cc1ccc(C(=O)Oc2ccc(/C=N/NC(N)=O)cc2)cc1 | 11.6
25 | CCCNC(=O)C1CC(c2ccccc2C(F)(F)F)=NO1 (stereo not drawn) | 15.2
26 | Cc1cc(-c2nnc(SCC(=O)Nc3cccc(C)c3C)n2N)n[nH]1 | 18.1
27 | Cc1ccc(S(=O)(=O)NCC(=O)OCC(=O)Nc2ccccc2OC(F)F)cc1 | 7.33
28 | COCCCNC(=O)CCN1C(=O)COc2ccccc21 | 20
29 | COc1ccc2cc(CCNS(=O)(=O)c3c(C)cc(C)cc3C)c(=O)[nH]c2c1 | 11.2
30 | COc1ccc(NC(=O)COC(=O)C2CC(=O)N(c3ccc(C)cc3)C2)cc1 (stereo not drawn) | 11.5
31 | CN(C)c1cccc(C(=O)OCC(=O)N(C)c2ccccc2)c1 | 10.9
32 | O=C(c1ccc(Cl)c(Cl)c1)N1CCCC1 | 16.4
33 | Cc1nnc(NC(=O)c2csc3c2CCC(C)C3)s1 (stereo not drawn) | 14.4
34 | Cc1ccc(C(=O)NCCc2nnc3ccc(SCC(=O)Nc4c(C)cc(C)cc4C)nn23)cc1 | 4.18
35 | Cc1cc(C)cc(OCC(=O)NNC(=O)c2cc(C)[nH]n2)c1 | 11.6
36 | CCn1c(CNS(=O)(=O)c2ccc(Br)cc2)n[nH]c1=S | 11.6
37 | Cc1c(C(=O)NNC(=S)NCc2ccc(Cl)cc2)oc2ccccc12 | 14.8
38 | O=C(c1ccc(Br)s1)N1CCN(c2ccccn2)CC1 | 9.44
39 | C=C(C)c1cccc(C(C)(C)NC(=O)Nc2ccccc2OCC)c1 | 14.5
40 | COc1ccc(CNC(=O)CC23CC4CC(CC(C4)C2)C3)cc1OC | 8.5
41 | Cn1cccc1C(=O)NC(=O)COC(=O)CNC(=O)CNC(=O)c1ccc(Cl)cc1Cl | 13.8
42 | O=C1OC(c2ccc(Br)cc2)=N/C1=C\c1ccco1 | 23.2
43 | COc1ccc(C(=O)/C(=C/c2cccs2)c2nc3ccccc3o2)cc1 | -1.18
44 | COc1ccccc1CNc1ncnc2nc[nH]c12 | 16.5
45 | CC1Cc2nc(SCC(=O)N3CCN(c4ccccc4)CC3)n(C)c(=O)c2S1 (stereo not drawn) | 9.24
46 | O=C(C1CC1)N1CCN(c2ccnc3cc(Cl)ccc23)CC1 | -31.6

Row | Structure (SMILES) | hERG current change (%, negative = inhibition) at 1uM [%]
47 | O=C(CSc1nnc(CNC(=O)C23CC4CC(CC(C4)C2)C3)n1-c1ccc(F)cc1)Nc1ccc(F)cc1 | 10.4
48 | CCOC(=O)C1CCCN(S(=O)(=O)CCNC(=O)c2cccc(OC)c2)C1 (stereo not drawn) | 6.16
49 | O=C(CCNC(=O)c1ccccc1Cl)Nc1ccccc1N1CCCC1 | 7.86
50 | O=C(CCS(=O)(=O)c1ccccc1)NCCS(=O)(=O)c1ccccc1 | 13.7
51 | O=C(NC1CCCC1)C(c1cccnc1)N(Cc1ccc(F)cc1)C(=O)c1csnn1 (stereo not drawn) | 1.36
52 | COc1cccc(N2CCN(C(=O)CCc3nnc4ccc(N5CCCC5)nn34)CC2)c1 | -1.62
53 | CCC1=Nc2ccc(Br)cc2C(c2ccccc2)N1CC(=O)OC (stereo not drawn) | -9.82
54 | Cc1cc2oc(C(=O)Nc3ccc(S(=O)(=O)Nc4ncccn4)cc3)cc(=O)c2cc1Cl | -6.76
55 | O=C(NCc1nc2ccccc2[nH]1)c1ccc(S(=O)(=O)N2CCOCC2)cc1 | 8.91
56 | COc1ccc(CCNc2nc(-c3ccncc3)cs2)cc1OC | 0.664
57 | CCCN1CCN(CCCNC(=O)CCn2nc(-c3ccccc3)ccc2=O)CC1 | -12.5
58 | Cn1c(=O)c(=O)n(C)c2cc(N3CCOCC3)c(NS(=O)(=O)c3ccc([N+](=O)[O-])cc3)cc21 | 4.62
59 | CCOCCn1c(CN2CCOCC2)nc2c1c(=O)[nH]c(=O)n2C | 14.1
60 | CS(=O)(=O)N(Cc1ccccc1)c1ccc(C(=O)N2CCOCC2)cc1 | -5.91
61 | CCOC(=O)C1(Cc2ccccc2)CCCN(Cc2ccc(OCC)c(CO)c2)C1 (stereo not drawn) | 4.54
62 | N#CCCNc1ccc(OCCC#N)cc1 | 17.3
63 | COc1cc(/C=N/NC(=O)C[n+]2ccccc2)cc(OC)c1OC(C)=O.[Cl-] | 13.8
64 | Cc1cccc(NC(=O)C23CCC(C)(/C(=N/O)C2)C3(C)C)c1 (stereo not drawn) | -1.6
65 | Cc1cc(=O)[nH]c(SCC(=O)Nc2ccc(Br)cn2)n1 | -1.01
66 | COc1ccc(CNc2ccc(-c3ccc(OC)cc3)nn2)cc1 | 1.82
67 | O=C(NCc1ccccc1)c1nc2c(nnn2Cc2cccc(Cl)c2)c(=O)[nH]1 | 10.1
68 | CCN(CC)CCNC(=O)COc1ccc(OC)cc1.Cl | 8.72
69 | O=C(COc1ccc([N+](=O)[O-])cc1)Nc1cccnc1 | -14.8

Row | Structure (SMILES) | hERG current change (%, negative = inhibition) at 1uM [%]
70 | CCCCC(=O)Nc1ncc2c(n1)CC(C)(C)CC2=O | 3.92
71 | Cc1ccc(NC(=O)/C(Cl)=C\c2ccccc2)cc1 | 10.2
72 | O=C(CCNC(=O)c1ccc(Br)cc1)NCc1ccccc1F | 0.387
73 | CCC(C)Sc1nc2c(c(=O)[nH]c(=O)n2C)n1CC(O)COc1ccccc1C (stereo not drawn) | 6.21
74 | O=C(c1ccc(Cl)cc1Cl)N1CCN(c2ccccn2)CC1 | 13.9
75 | CCN(CC)c1ncn(Cc2c(Cl)cccc2Cl)c2ncnc1-2 | 3.87
76 | S=C(NCCSCc1c(Cl)cccc1Cl)Nc1ccccc1 | 2.09
77 | CCCOc1ccc(S(=O)(=O)N2CCN(C)CC2)c2ccccc12 | 1.66
78 | Cn1c(=O)[nH]c(=O)c2c1nc(NCCCn1ccnc1)n2Cc1ccccc1 | 5.08
79 | O=C(Nc1nnc(N2CCCCCC2)s1)c1cc(-c2ccc(Br)cc2)on1 | 15.4
80 | NS(=O)(=O)c1ccc(CCNC(=O)c2cccc([N+](=O)[O-])c2)cc1 | 2.31
81 | COc1ccccc1CNC(=O)C1CCN(S(C)(=O)=O)CC1 | -6.93
82 | CCn1c(/C=C/N(C)c2ccccc2)[n+](CC)c2ccc(Cl)cc21.[I-] | -7.59
83 | CCCCNC(=O)CSc1nc2ccc(C)cc2[nH]1 | 5.56
84 | CCOc1c(Br)cc(/C=N\NC(=O)c2ccccc2)cc1OC | 16.2
85 | CCOc1ccc(NC(=O)C2CC3CCC2C3)cc1 (stereo not drawn) | 15.9
86 | COc1ccccc1N1CCN(Cc2ccc(Br)o2)CC1 | 6.13
87 | Cc1cccc(/C=N/NC(=O)c2cccc(NC(=O)c3ccccc3)c2)n1 | 8.78
88 | O=C(NCc1cccnc1)Nc1ccc2c(c1)OCO2 | 4.41
89 | CCC(Sc1nc2cc3c(cc2c(=O)n1Cc1ccco1)OCO3)C(=O)NCCOC (stereo not drawn) | -28.1
90 | CCCCN(C(=O)c1ccc(OC(F)(F)F)cc1)c1c(N)n(CCC)c(=O)[nH]c1=O | 10.8
